# Experimental data reported in PubChem BioAssay AID504333 (National Center for Advancing Translational Sciences (NCATS), 2011).
# The whole screen tested about 360,000 compounds, of which about 16,000 (4.4%) were called active. Inconclusive means that the source gave no clear call. Such entries were picked first, then a sample of the others. Calls come from the whole dose curve; as a rule, active = well fitted inhibition curve with a large enough effect; inconclusive = small, poorly fitted or top-dose-only effect; inactive = no such curve, though single readings can be large or run the other way. A potency beside an inconclusive call is a rough fit, not a confirmed value.
# Target: Bromodomain adjacent to zinc finger domain protein 2B (Homo sapiens) (UniProt Q9UIF8)
# Experiment: qHTS Assay for Inhibitors of BAZ2B; note: nearly all actives have a fitted effect of over 60% in size
# Details: AlphaScreen BAZ2B-H3K14Ac peptide displacement; activity change, negative = inhibition: at 114 µM (top of the series) unless noted
# Method in brief: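 Compounds, titrated to a top concentration of 110 uM, were incubated 30 min at room temperature with preformed BAZ2B/acetyl-K14 H3 peptide complex (50 nM each). Proximity signal was measured by AlphaScreen after 20 min with beads.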
# % is set by controls: 0 for no effect and ±100 for the full control effect; potency is the fitted concentration of half-maximal effect; tags give direction and shape of the fitted curve.
# UniProt Q9UIF8, sequence (Q9UIF8 whole entry, looked up, the tested form may be a part): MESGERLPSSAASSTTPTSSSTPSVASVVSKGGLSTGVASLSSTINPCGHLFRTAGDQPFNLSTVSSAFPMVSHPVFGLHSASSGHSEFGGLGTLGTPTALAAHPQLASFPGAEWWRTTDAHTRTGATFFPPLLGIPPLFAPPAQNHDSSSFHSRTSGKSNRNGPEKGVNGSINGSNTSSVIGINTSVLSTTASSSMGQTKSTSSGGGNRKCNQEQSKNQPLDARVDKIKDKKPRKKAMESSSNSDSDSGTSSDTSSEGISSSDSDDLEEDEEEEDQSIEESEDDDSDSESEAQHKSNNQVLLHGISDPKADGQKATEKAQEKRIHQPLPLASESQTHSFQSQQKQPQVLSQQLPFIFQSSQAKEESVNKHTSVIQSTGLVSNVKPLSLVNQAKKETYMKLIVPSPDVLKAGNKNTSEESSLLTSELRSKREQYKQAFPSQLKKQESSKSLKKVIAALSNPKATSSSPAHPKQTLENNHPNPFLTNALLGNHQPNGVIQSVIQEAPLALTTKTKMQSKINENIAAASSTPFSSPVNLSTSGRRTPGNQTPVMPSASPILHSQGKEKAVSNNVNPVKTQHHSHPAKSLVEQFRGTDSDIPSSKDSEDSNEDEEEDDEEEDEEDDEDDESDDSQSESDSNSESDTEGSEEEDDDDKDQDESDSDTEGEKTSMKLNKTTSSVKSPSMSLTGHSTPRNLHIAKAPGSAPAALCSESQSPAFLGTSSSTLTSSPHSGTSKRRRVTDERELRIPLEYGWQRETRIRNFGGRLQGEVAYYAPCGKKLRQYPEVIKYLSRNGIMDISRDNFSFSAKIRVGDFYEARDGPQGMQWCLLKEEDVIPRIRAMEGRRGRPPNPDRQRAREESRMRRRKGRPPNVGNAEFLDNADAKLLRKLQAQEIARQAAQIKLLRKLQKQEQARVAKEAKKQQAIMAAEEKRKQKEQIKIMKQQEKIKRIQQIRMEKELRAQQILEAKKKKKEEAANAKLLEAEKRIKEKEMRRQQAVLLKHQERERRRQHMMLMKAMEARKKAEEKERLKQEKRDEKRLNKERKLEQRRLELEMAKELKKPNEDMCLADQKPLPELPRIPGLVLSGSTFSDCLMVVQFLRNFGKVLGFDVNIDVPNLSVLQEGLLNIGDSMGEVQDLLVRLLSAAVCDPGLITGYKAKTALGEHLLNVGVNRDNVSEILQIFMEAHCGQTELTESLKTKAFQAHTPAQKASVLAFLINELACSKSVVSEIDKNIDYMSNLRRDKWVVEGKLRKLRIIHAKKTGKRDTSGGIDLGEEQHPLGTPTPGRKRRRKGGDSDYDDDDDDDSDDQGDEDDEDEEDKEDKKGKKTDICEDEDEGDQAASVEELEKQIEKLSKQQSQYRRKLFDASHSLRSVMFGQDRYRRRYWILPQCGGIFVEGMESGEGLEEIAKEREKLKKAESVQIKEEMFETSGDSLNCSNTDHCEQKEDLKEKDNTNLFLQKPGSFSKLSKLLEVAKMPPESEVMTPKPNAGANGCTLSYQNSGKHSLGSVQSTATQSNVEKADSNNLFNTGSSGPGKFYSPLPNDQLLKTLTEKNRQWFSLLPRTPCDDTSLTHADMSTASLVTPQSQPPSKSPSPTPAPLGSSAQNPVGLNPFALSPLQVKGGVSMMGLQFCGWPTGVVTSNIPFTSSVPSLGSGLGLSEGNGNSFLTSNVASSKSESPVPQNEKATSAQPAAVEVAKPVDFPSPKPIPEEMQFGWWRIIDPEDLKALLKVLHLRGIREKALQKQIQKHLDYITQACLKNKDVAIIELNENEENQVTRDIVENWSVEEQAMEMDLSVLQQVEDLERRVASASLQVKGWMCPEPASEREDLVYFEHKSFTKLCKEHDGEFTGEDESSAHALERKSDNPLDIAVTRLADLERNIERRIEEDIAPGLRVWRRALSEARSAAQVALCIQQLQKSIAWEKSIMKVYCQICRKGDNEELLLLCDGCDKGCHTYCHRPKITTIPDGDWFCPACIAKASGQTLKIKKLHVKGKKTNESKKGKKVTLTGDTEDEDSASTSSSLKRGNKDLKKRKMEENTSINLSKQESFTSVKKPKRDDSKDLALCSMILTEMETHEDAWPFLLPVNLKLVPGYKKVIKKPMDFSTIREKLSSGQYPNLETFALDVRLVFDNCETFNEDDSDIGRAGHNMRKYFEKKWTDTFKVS
SMILES,"activity change, negative = inhibition",Potency
C[C@@H](C[C@@H](O)[C@H](O)C(C)(C)O)[C@@H]1CC[C@]2(C)C3=CC[C@H]4C(C)(C)C(=O)CC[C@]4(C)[C@H]3CC[C@@]12C,inactive: -25.5%,–
Cc1ccc(C2(c3ccc(C)cc3)CC2C(=O)Nc2ccc([N+](=O)[O-])cc2O)cc1 (stereo unspecified),–,"inconclusive: 28.2 µM [inhibitor, full curve]"
Cc1csc(=Nc2ccccc2)n1C,–,active: 50.1 µM
CCCCNC(=O)C1(NC(=O)Nc2ccc(C)cc2)CCCCC1,inactive: -2.42%,–
COc1cc(CN2CCN(Cc3ccc(SC)cc3)CC2)cc(OC)c1O,–,active: 50.1 µM
O=C(CSc1nnnn1-c1ccccc1)NC1CCCc2ccccc21 (stereo unspecified),inactive: 2.55%,–
COc1ccc(CCN2CC(C(=O)N(C)C3CCOCC3)CCC2=O)cc1 (stereo unspecified),inactive: 22.5%,–
C=CCOc1cccc(CNc2ccc3[nH]c(=O)[nH]c3c2)c1,–,"inconclusive: 70.8 µM [inhibitor, single point]"
COC(=O)CCS(=O)(=O)c1cc(Cl)ccc1Cl,inactive: 4.04%,–
COC(=O)c1[nH]c2ccc(Br)cc2c1NC(=O)CN1CCN(C2CCCCC2)CC1,–,"inconclusive: 89.1 µM [inhibitor, single point]"
Cc1cc(C(=O)N2CCN(S(C)(=O)=O)CC2)cs1,inactive: 0.833%,–
COc1ccc([C@H]2CC(=O)C=C(c3ccc(C)c([N+](=O)[O-])c3)C2)cc1,inactive: -37.1%,–
COc1ccc(Br)cc1CNC(=O)CCSCc1ccc(C)cc1,inactive: 6.25%,–
CCn1c(SCC(=O)N/N=C/C=C/c2ccccc2[N+](=O)[O-])nnc1-c1ccc(Cl)cc1,inactive: -9.61%,–
O=C(CS(=O)(=O)c1cccc2nsnc12)N1CCN(c2cccc(C(F)(F)F)c2)CC1,–,"inconclusive: 79.4 µM [inhibitor, single point]"
O=C(Cn1cc(S(=O)(=O)c2ccccc2)c(=O)c2cc3c(cc21)OCO3)Nc1ccc(Cl)cc1,inactive: -20.5%,–
COc1cc2c(cc1OC)CN(C(=O)/C=C/c1cccc([N+](=O)[O-])c1)CC2,–,"inconclusive: 3.98 µM [inhibitor, partial curve, poor fit]"
COc1cccc(NC(=O)CN2C(=O)COc3ccc(C)cc32)c1,–,"inconclusive: 89.1 µM [inhibitor, single point]"
CCNc1cc(N2CCN(C3CCCCC3)CC2)c2noc3c2c1C(=O)c1ccccc1-3,–,active: 35.5 µM
Cc1cc(NC(=S)Nc2ccc(C)c(Cl)c2)n[nH]1,–,"inconclusive: 8.91 µM [inhibitor, partial curve]"
CCOP(=O)(O)c1ccccc1OCCOc1ccccc1P(=O)(O)OCC,–,"inconclusive: 89.1 µM [inhibitor, single point]"
